{"source": "paper PMC8793056", "about": "(ACS Omega, 2022)", "key": {"Mouse plasma stability": {"experiment": "Mouse plasma stability", "assay_type": "in vitro ADME", "conditions": "C57BL6, mouse"}, "[1]": {"system": "male and female C57BL/6 mice (eye)", "experiment": "Rodent eye wiping pungency assay", "assay_type": "in vivo, mouse", "conditions": "relative pain-producing potency with capsaicin set to 100"}, "[2]": {"system": "primary mouse dorsal root ganglion (DRG) neurons (TRPV1-sensitive)", "experiment": "Ca2+ imaging in primary mouse dorsal root ganglion", "assay_type": "cell-based"}, "Aqueous solubility": {"experiment": "Aqueous solubility", "assay_type": "physicochemical", "conditions": "YB-2 tested as a HCl salt"}, "[3]": {"conditions": "cited from earlier work"}, "mice": {"system": "mice", "conditions": "s.c. administration in mice; cited from earlier work"}, "CD-1 female mice": {"system": "CD-1 female mice", "conditions": "6 mg/kg s.c.; cited from earlier work"}, "[4]": {"system": "male and female C57BL/6 mice", "experiment": "Hotplate thermal assay after systemic s.c. injection", "conditions": "2 mg/kg s.c., 2 h before 49 °C hotplate, male mice only; P = 0.0072"}, "TRPV1": {"system": "TRPV1", "conditions": "Ca2+ influx assay; cited from earlier work"}}, "data": [{"smiles": "CC[C@H](C)C(=O)O[C@H]1C[C@@H](C)C=C2C=C[C@H](C)[C@H](CC[C@@H]3C[C@@H](O)CC(=O)O3)[C@H]21", "note": "[lovastatin]", "values": [{"measurement": "remaining at 120 min", "setting": "Mouse plasma stability", "value": 0.2, "unit": "%"}]}, {"smiles": "COc1cc(CNC(=O)CCCCC=CC(C)C)ccc1O", "note": "[capsaicin, 8-methyl-N-vanillyl-6-nonenamide]", "values": [{"measurement": "Pungency (RPP)", "setting": "[1]", "value": 100}, {"measurement": "mean peak fluorescence", "setting": "[2]; 0.5 μM, initial experiment (data not shown)", "value": "4.00 ± 0.38"}, {"measurement": "TRPV1-sensitive neurons showing desensitization", "setting": "[2]; first application 0.5 μM compound, then 0.5 μM capsaicin about 7.5 min later", "value": 96, "unit": "%"}, {"measurement": "solubility", "setting": "Aqueous solubility", "value": 0.0013, "unit": "g/l00 mL"}, {"measurement": "aqueous solubility", "setting": "[3]", "value": 0.0013, "unit": "g/100 mL"}, {"measurement": "LD50", "setting": "mice", "value": 9, "unit": "mg/kg"}, {"measurement": "latency in the hotplate assay", "setting": "CD-1 female mice", "value": "increased latency in the hotplate assay"}, {"measurement": "maximum possible effect (%MPE) vs vehicle", "setting": "[4]", "value": "significantly higher than that of the vehicle control"}]}, {"smiles": "COc1cc(CN(C)C(=O)CCCCC=CC(C)C)ccc1O", "note": "[3d]", "values": [{"measurement": "EC50", "setting": "TRPV1", "value": "> 100", "unit": "µM"}]}, {"smiles": "CC(C)[N+](C)(CCOC(=O)C1c2ccccc2Oc2ccccc21)C(C)C", "note": "[propantheline]", "values": [{"measurement": "remaining at 120 min", "setting": "Mouse plasma stability", "value": 20, "unit": "%"}]}]}
